From PMC4336329 (PLoS ONE, 2015) come the findings set out here.

Out of some 310,000 compounds screened, about 14,000 (4.5%) showed an effect of 50% or more. The effect is printed as a negative number. The list shows a part of the results.
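Note: peak tail current of the secondary pulse compared with the same well before compound.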

Sequence of human ether-à-go-go-related gene (hERG) potassium channel (Q12809 whole entry, looked up): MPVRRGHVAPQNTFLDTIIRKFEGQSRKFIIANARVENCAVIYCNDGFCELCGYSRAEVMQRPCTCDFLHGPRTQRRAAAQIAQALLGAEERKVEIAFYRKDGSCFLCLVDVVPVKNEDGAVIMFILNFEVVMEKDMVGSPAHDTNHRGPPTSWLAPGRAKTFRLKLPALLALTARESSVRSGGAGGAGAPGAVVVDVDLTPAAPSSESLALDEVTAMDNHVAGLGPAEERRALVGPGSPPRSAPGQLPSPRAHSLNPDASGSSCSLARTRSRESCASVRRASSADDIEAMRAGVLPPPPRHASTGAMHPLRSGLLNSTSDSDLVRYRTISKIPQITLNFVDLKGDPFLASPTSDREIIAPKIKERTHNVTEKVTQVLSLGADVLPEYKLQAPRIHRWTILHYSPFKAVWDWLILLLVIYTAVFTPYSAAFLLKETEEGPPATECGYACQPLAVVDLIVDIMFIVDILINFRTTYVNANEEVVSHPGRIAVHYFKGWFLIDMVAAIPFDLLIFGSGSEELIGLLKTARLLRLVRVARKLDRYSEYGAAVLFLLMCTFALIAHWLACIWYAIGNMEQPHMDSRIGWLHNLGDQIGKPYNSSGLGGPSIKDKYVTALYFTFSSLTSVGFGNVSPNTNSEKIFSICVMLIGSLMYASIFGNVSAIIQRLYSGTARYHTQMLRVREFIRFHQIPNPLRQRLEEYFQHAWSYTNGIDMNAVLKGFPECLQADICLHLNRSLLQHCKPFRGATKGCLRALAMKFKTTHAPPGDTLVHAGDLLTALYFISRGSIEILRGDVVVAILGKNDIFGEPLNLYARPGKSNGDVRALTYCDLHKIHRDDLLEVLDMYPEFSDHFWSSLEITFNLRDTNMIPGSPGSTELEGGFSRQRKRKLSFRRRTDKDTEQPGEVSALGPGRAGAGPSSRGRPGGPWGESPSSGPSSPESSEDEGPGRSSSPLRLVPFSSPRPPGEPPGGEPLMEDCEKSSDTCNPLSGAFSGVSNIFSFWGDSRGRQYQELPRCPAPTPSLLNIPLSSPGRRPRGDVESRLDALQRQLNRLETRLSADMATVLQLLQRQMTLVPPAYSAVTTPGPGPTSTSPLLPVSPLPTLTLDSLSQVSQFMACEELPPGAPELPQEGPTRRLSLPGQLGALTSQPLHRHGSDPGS

The assay addresses human ether-à-go-go-related gene (hERG) potassium channel (human, UniProt Q12809). Kind of assay: primary screen, population patch clamp on CHO cells stably expressing hERG.
Turning to `N#Cc1c(Cl)nc(-c2ccncc2)nc1-c1ccccc1`, the “hERG current change (%, negative = inhibition) at 10uM” value is listed as 22.7%. The value for `CC(=O)c1ccc(NC(=S)NNC(=O)c2ccncc2)cc1` was 25.4%. For `Cc1sc2nc(CN3CCOCC3)nc(NS(=O)(=O)c3ccc4c(c3)OCCO4)c2c1C`, the “hERG current change (%, negative = inhibition) at 10uM” value is 6.33%. In the case of `COc1cc(C(=O)O)cc(NC(=O)c2ccco2)c1OC`, the “hERG current change (%, negative = inhibition) at 10uM” value is reported as 3.98%.

Take `O=C(CN1CCSc2ccccc21)NCCCc1ccccc1`: the “hERG current change (%, negative = inhibition) at 10uM” value is reported as -10.6%. For `O=C(Nc1ccc([N+](=O)[O-])cc1)C1CC1(c1ccccc1)c1ccccc1` (stereo not shown) the value was 0.405%; for `COC(=O)c1cccc(NC(=O)COc2cccc([N+](=O)[O-])c2)c1`, 23.5%.

Take `CSc1nnc(-c2ccc(NC(N)=S)cc2)o1`: the “hERG current change (%, negative = inhibition) at 10uM” value is -3.06%. The value for `O=C(COC(=O)C1CC1)Nc1ccc2c(c1)OCO2` was 3.04%; that for `O=C(C#Cc1ccccc1)Nc1ccc(F)cc1` was 10.1%. For `N#CCCSc1ccccc1NC(=O)c1cc(=O)c2ccccc2o1` the value was -10.3%. The value for `Cc1ccc(N(C)S(=O)(=O)c2cccc(C(=O)Nc3ccc(N4CCOCC4)cc3)c2)cc1` was -14%; that for `COc1ccc(N2C(=NC(=O)C3CCCCC3)SC3CS(=O)(=O)CC32)cc1` (stereo not shown) was 20%.

Consider `CCCn1c(NC(=O)C2CCN(C(=O)c3ccc(F)cc3)CC2)nc2ccccc21`, for which the “hERG current change (%, negative = inhibition) at 10uM” value is on record as -47.6%. In the case of `O/N=C1/CCc2nonc2/C1=N/O`, the “hERG current change (%, negative = inhibition) at 10uM” value is -10.2%. The value for `COc1ccccc1NC(=O)CSc1nc2c(oc3ccccc32)c(=O)n1C` was -3.07%; that for `COc1cccc(-c2cn(C[C@H]3CC[C@@H]([C@@H]4CC[C@H](Cn5cc(-c6cccc(OC)c6)nn5)O4)O3)nn2)c1` was -72.7%; that for `COc1ccc(-c2cc(C)no2)cc1S(=O)(=O)N1CCCCC1` was 2.3%. For `C(=C\c1ccccc1)/C=N/N1CCN(Cc2ccccc2)CC1` the value was 1.45%; for `CC(=O)Nc1ccc(OC(=O)c2cc3ccccc3oc2=O)cc1`, -19.6%; for `O/N=C/c1cc(Br)cs1`, 1.44%.

`NC(=O)C1(N2CCCCC2)CCN(c2ccc3nnc(-c4ccccc4)n3n2)CC1`: the “hERG current change (%, negative = inhibition) at 10uM” value is -28.9%. With `COc1ccc(CCC(=O)N2CCc3ccccc32)cc1`, the “hERG current change (%, negative = inhibition) at 10uM” value turned out to be 0.873%. Turning to `COc1cc(OC)c(C(=O)O/N=C(\N)c2ccccc2)cc1OC`, the “hERG current change (%, negative = inhibition) at 10uM” value is reported as -5.88%.

Take `COC(=O)c1cnn(C(=O)c2ccccc2Br)c1N`: the “hERG current change (%, negative = inhibition) at 10uM” value came to 6.12%.
